The list shows a part of the results. At the low end of the ranking the order means little.
These sequences were tested on MYC (p64) + MAX (p21), in MYC:MAX (assay: protein-binding microarray (anti-MAX antibody)). Details: PBM: 15 mM Tris-HCl pH 7.5, 100 mM KCl, 0.075% NP40, 7.5 mM beta-mercaptoethanol, 375 ng/ul BSA, 8 ng/ul poly(dA-dT):(dA-dT), 550 ng complex, 60 min, room …; high values mean tight binding; double strand, one strand shown; sequences stand for … in CCGGC…TTAATAGCTAAGATTACTATATCGACG.

Sequence	binding signal (log2 normalized fluorescence)
TGAGGGCCGGTA	-0.0816
TGACCGATTGTA	0.114
TGAGCAGACGTA	0.132
TGACATTCAGTA	0.215
TGACGGGCGGTA	0.0481
TGAATAGATGTA	-0.0846
TGATCGAACGTA	-0.0311
TTTCACGTAGTA	0.331
TGAGTCGGGGTA	0.126
TGACTCCTTGTA	0.166
TGACACTGCGTA	0.302
TGACACGTGCTG	0.743
TGACTGTATGTA	0.247
TGAATTCACGTA	0.137
TGACGTTGTGTA	0.16
TGAACGCACGTA	0.455
TGAATCATGGTA	0.266
TGAATGGGAGTA	0.171
TGAGCGGGAGTA	-0.0733
TGAGATCACGTA	0.352
TGAATCTTGGTA	-0.0321
TGACACGAAGTA	0.165
TGACTTCGCGTA	0.119

Sequence	binding signal (log2 normalized fluorescence)
CGACACATGGTT	0.635
TGCCCCGTGGTA	0.501
TGAGTCTTAGTA	-0.124
TGACCATATGTA	0.433
TCGCACGTGGAA	0.67
TGACGTAGTGTA	-0.0016
TGATCGGTAGTA	-0.055
TGACACGTTAAA	0.508
TGACGGGGAGTA	0.207
TGATAGTTCGTA	-0.254
TGATCTTGTGTA	0.116
TTACACGTGCTA	1.02
TGAAATGTGGTA	0.357
TGAGGTCCAGTA	-0.0423
TGACGATTCGTA	0.0651
TGACCGTTCGTA	0.106
TGACCTTACGTA	0.252
TGATATGTTGTA	-0.0776
TGATTGAAAGTA	-0.0313
TGAAGCCTGGTA	0.217
TGAGCGCGCGTA	0.28
ATTTACAAAGCA	0.219
TGAAGTCCAGTA	-0.111

Sequence	binding signal (log2 normalized fluorescence)
TGAAAGTTTGTA	0.00621
TCTAACGTGGTA	0.49
TGACATCTGGTA	0.311
TGATTTCCTGTA	-0.0273
TGAATAAGGGTA	-0.0221
TGACGCACAGTA	0.353
TGACACGGAATA	0.131
TGAGCAACCGTA	0.0353
TGATCATATGTA	0.297
TGACCGTTTGTA	0.156
TGAAAGGTGGTA	0.277
TGACACGTTCTA	0.591
TAACACGTGCTT	0.969
TGATGCGCTGTA	0.167
TGACTTAAGGTA	0.0719
TGACACGTCGCC	0.382
TGATGGCAGGTA	0.106
TGACATCGAGTA	0.448
TGACGGACAGTA	0.124
TGAAAAGGAGTA	-0.00388
TGACCTGAGGTA	0.194
TGAACGCTTGTA	0.172
TGATTAAAAGTA	-0.0502

Sequence	binding signal (log2 normalized fluorescence)
TGCTGCGTGGTA	0.424
TGAGAACCTGTA	0.205
TGACACTGTGTA	0.341
TGAAGTAACGTA	0.127
TGAATCGGGGTA	0.00877
TGACTGTTCGTA	0.108
TGAGCACTTGTA	0.0199
TGAACCTGGGTT	0.175
TGAGTCGGAGTA	-0.235
TGAACGGCTGTA	0.0761
TCACACGAGGTT	0.866
TGACACGCTATA	0.447
TGACCATTCGTA	0.156
TGATGGGCCGTA	0.108
TGATATATTGTA	-0.186
TGAGTCGTCGTA	-0.0597
TGATGAGGTGTA	-0.000883
TGAAATAAAGTA	0.0129
TGACTCTTTGTA	0.0122
TGAATACATGTA	0.189
TCAAACGTGGTA	0.603
TGACTAGATGTA	0.0946
TGAATAATTGTA	-0.0392

Sequence	binding signal (log2 normalized fluorescence)
TGACCAGGAGTA	0.27
TGACTCGCGGTA	0.365
TGCCAGGTGGTA	0.528
TGAGCCCATGTA	0.328
TGACCTGGTGTA	0.367
TGAGTTATAGTA	-0.0368
TGACACGTAGTA	0.415
TGAGTCATGGTA	0.231
TGAGGTGACGTA	0.0346
TGAGTCGCTGTA	0.0603
TGAGGGAGGGTA	0.432
TGACCAAGGGTA	-0.113
TGACCTGTGGTA	0.234
TGAGGATTGGTA	-0.0366
TGAAACAAAGTA	-0.0485
TGAAAACATGTA	0.34
TGAACGATAGTA	0.00148
TGACACGTGCCT	0.722
TGAATTCGAGTA	-0.0175
TAGCACGTGGCA	0.803
TGACTAGGAGTA	-0.187
TGATCGATGGTA	0.0768
TGACACGTACAA	0.498

Sequence	binding signal (log2 normalized fluorescence)
TGACGATTGGTA	-0.0732
TGATTCTGCGTA	-0.063
TGAGAGGGCGTA	0.0732
TGATGCATGGTA	0.364
TGACCAGCGGTA	0.0533
TGACGAGCAGTA	0.115
TGTTACGGGGTA	0.148
TGATAAATCGTA	-0.115
AGACCCCTGGTA	0.184
TGAATAGTAGTA	-0.147
CTGCACGTGGTA	0.875
TGATGTTGGGTA	0.0135
TGAAGAGGCGTA	-0.105
TGAGAGATCGTA	-0.0646
TGAACCCCAGTA	0.161
CGACATGTAGTA	0.368
TGAACCTGGGTA	0.00556
TGATAAAGAGTA	-0.219
TGAAGCCCAGTA	0.0763
TGAGTGACTGTA	0.0162
TGAGCGATCGTA	-0.067
TGATAGAACGTA	-0.0834
TGAATAACCGTA	-0.12
